The target of assay [1] is T1, VEGF-A 109 (minimal VEGF-A fragment with 109 residues) (radiolabelled (printed as tritiated; ligand solution may be supernatant of metabolically labeled 293T cells)).
T1 chain: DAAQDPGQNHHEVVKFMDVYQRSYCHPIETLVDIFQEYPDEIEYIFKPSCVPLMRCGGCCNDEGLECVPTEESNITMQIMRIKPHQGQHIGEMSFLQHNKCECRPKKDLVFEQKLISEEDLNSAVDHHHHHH
Kind of assay: precipitation of radiolabelled VEGF-A 109 by the Fc fusion with protein A sepharose, SDS-PAGE autoradiography. Here is the method: (§1) Either Tritiated VEGF-A 109 or VEGF-C 109 was used in a given binding experiment. Ligand in solution was precipitated by mixing 175 μl of ligand solution with 100 μl binding mix at 4° C. overnight, with agitation. The ligand solution may be the supernatant of metabolically labeled 293T cells. The binding mixes used for the receptor binding analysis were as follows: for VEGFR-1 binding assays, the binding mix was phosphate buffered saline (PBS) containing 1.5% BSA, 0.06% Tween 20, 3 μg/ml heparin and 400 ng/ml VEGFR-1-Fc fusion protein (100 μl of this binding mix was added to 200 μl of ligand solution). For VEGFR-2 binding assays, the binding mix was 82% conditioned cell supernatant from 293T cells transiently expressing VEGFR-2-Fc fusion protein in mixture with 18% of a PBS solution that contained 5% BSA, 0.2% Tween 20, and 10 μg/ml heparin (250 μl of binding mix was added to 200 μl of ligand solution). For VEGFR-3 binding assays, the binding mix was 82% conditioned cell supernatant from 293T cells transiently expressing VEGFR-3-Fc fusion protein, 18% of PBS containing 5% BSA, 0.2% Tween 20, and 10 μg/ml heparin (250 μl of binding mix was added to 200 μl of ligand solution). To collect precipitated ligand, 50 μl of a 30% protein A sepharose (PAS, Pharmacia) slurry in PBS was added and incubated under agitation for at least 1.5 hr at 4° C. Standard buffer was added to each immunoprecipitation sample and boiled for 5 minutes at 95° C. during which the immunopreciptated proteins become dissociated from the protein A sepharose. After centrifugation, 10 μl of each sample was analyzed on 15% SDS-PAGE under reducing conditions. The gels were dried and exposed for either 12 hours on phosphorimager plates or 4 weeks on X-ray film.

For assay [2], the target named is T2, VEGF-C 109 (minimal VEGF-C fragment with 109 residues) (radiolabelled (printed as tritiated; ligand solution may be supernatant of metabolically labeled 293T cells)).
T2 chain: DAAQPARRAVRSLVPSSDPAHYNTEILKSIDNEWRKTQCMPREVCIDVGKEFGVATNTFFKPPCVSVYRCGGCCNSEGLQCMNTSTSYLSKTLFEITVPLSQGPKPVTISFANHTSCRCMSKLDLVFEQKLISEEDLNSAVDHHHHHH
The experiment in a line: precipitation of radiolabelled VEGF-C 109 by the Fc fusion with protein A sepharose, SDS-PAGE autoradiography. How it is done:
as §1

B1: R-2 E with CD33 Signal Peptide (VEGFR-2 fragment / human IgG Fc fusion) (Fc fusion)
chain: MDKLASGTLEDGRGSLPSVSLDLPRLSIQKDILTIKANTTLQITCRGQRDLDWLWPNNQSGSEQRVEVTECSDGLFCKTLTIPKVIGNDTGAYKCFYRETDLASVIYVYVQDYRSPFIASVSDQHGVVYITENKNKTVVIPCLGSISNLNVSLCARYPEKRFVPDGNRISWDSKKGFTIPSYMISYAGMVFCEAKINDESYQSIMYIVVVVGYRIYDVVLSPSHGIELSVGEKDPIEGRGGGGGD[gap - human IgG1 Fc with changes]
notes: CD33 signal peptide in the expression construct; not shown: human IgG Fc fragment fused to the C-terminus
On to B1, for which the binding result in assay [1] and in assay [2] was “no binding” throughout.

B2: R-2 C with CD33 Signal Peptide (VEGFR-2 fragment / human IgG Fc fusion) (Fc fusion)
chain: MDKLASGTLEDGRGSLPSVSLDLPRLSIQKDILTIKANTTLQITCRGQRDLDWLWPNNQSGSEQRVEVTECSDGLFCKTLTIPKVIGNDTGAYKCFYRETDLASVIYVYVQDYRSPFIASVSDQHGVVYITENKNKTVVIPCLGSISNLNVSLCARYPEKRFVPDGNRISWDSKKGFTIPSYMISYAGMVFCEAKINDESYQSIMYIVVVVGYRIYDVDPIEGRGGGGGD[gap - human IgG1 Fc with changes]
notes: as for B1
In the case of B2, the binding result in assay [1] and in assay [2] was “no binding” each time.

B3: R-2 D with CD33 Signal Peptide (VEGFR-2 fragment / human IgG Fc fusion) (Fc fusion)
chain: MDKLASGTLEDGRGSLPSVSLDLPRLSIQKDILTIKANTTLQITCRGQRDLDWLWPNNQSGSEQRVEVTECSDGLFCKTLTIPKVIGNDTGAYKCFYRETDLASVIYVYVQDYRSPFIASVSDQHGVVYITENKNKTVVIPCLGSISNLNVSLCARYPEKRFVPDGNRISWDSKKGFTIPSYMISYAGMVFCEAKINDESYQSIMYIVVVVGYRIYDVVLSPSHDPIEGRGGGGGD[gap - human IgG1 Fc with changes]
notes: as for B1
B3: the binding result in assay [1] and in assay [2] was “no binding” each time.

The values are drawn from US20090155268A1 (VEGENICS, published 2009).
